Data from PubChem BioAssay AID493208 (National Center for Advancing Translational Sciences (NCATS), 2011).
Hit rate of the full screen: of about 44,000 compounds, about 340 (0.77%) were called active. Not shown: some 5% with an inconclusive outcome. Calls follow the shape of the dose curve; as a rule, active = well fitted inhibition curve with a large enough effect; inconclusive = small, poorly fitted or top-dose-only effect; inactive = flat fitted curve, though single readings scatter. Some of the results follow.

Test: Acumen qHTS Assay for Inhibitors of the mTORC1 Signaling Pathway in MEF (Tsc2-/-, p53-/-) Cells: Sytravon;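 also: plate controls were DMSO for no effect and rapamycin for full effect; nearly all actives have a fitted effect of over 50% in size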
Conditions: phospho-rpS6 immunofluorescence/PI, 24 h; series mostly up to 38.3 µM; activity change, negative = inhibition: at the top concentration
How it was run: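 Compounds act on Tsc2-/-, p53-/- fibroblasts carrying an empty vector for 24 h before fixation and dual staining for phospho-S6 and DNA (propidium iodide). Values are percentages of cells above a rapamycin-defined pS6/PI threshold.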

Activity change, negative = inhibition, inactive:
CC1CCCCN1C(=O)Cn1ncc2c3ccccc3n(Cc3ccccc3F)c2c1=O (configuration not stated) -0.766%
CC(C)(C)C1CCc2c(sc3nc(-c4cc5ccccc5oc4=O)[nH]c(=O)c23)C1 (configuration not stated) -24.2%
Cc1c(-c2cccc(NC(=O)Nc3ccc(Cl)cc3)c2)nc2ncccn12 1.41%
COc1ccccc1-c1noc(-c2ccc(NC3CCCCC3)c([N+](=O)[O-])c2)n1 1.43%
COCCCNC(=O)c1cnc2sc(N3CCCCCC3)nn2c1=O -9.62%
Cc1ccc2c(c1)-c1c(cnn1CC(=O)N1CCN(c3ccccc3F)CC1)CO2 -8.08%
CCCCN(CCCNC(=O)CN1N=C(c2ccc(C)cc2)CCC1=O)c1ccccc1 -13.4%
COc1cccc(NC(=O)CCc2nc3c(C)nn(-c4ccc(C)cc4)c3n(C)c2=O)c1 0%
O=c1c(=O)n(Cc2ccc(Cl)cc2)ccn1Cc1ccc(F)cc1 -19.3%
COc1cccc(OCC(=O)NCCS(=O)(=O)N2CCN(c3ccccc3F)CC2)c1 -1.9%
COc1ccc(-c2cn3cccnc3n2)cc1NC(=O)Cc1ccccc1 0.0433%
Cc1ccc(-c2nc(CNC(=O)Nc3ccccc3)c(C)o2)cc1 13%
CCN(CC)C(=O)CSc1nc2ccsc2c(=O)n1Cc1ccccc1Cl -0.0151%
CCc1nc2cccnc2n1-c1ccc(CC(=O)Nc2c(C)cccc2C)cc1 -4.42%
Cc1cc(C)n2c(Nc3ccc(C(C)C)cc3)c(-c3ccsc3)nc2n1 -21.2%
CCOC(=O)c1ccc(NC(=O)Cn2cnc3sc(C(=O)OCC)c(C)c3c2=O)cc1 -3.89%
CCc1ccc(NC(=O)CSc2nc3c([nH]c4ccccc43)c(=O)n2-c2cccc(OC)c2)cc1 -0.0441%
CCCCCn1c(=O)c2c(nc3n2CCN3c2ccc(Br)cc2)n(C)c1=O 7.13%
COc1cc(C)ccc1OCCSc1nc2ccc(NC(C)=O)cc2s1 -5.57%
CCC(Sc1nnc2c3ccccc3n(C)c2n1)C(=O)Nc1nnc(C(C)C)s1 (configuration not stated) 8.06%
COc1ccc(-c2cc3ccc(O)c(CN4CCCC4)c3oc2=O)cc1OC 1.88%
Cc1ccc(C)c(CNC(=O)c2sc3ncnc(N(C)C4CCCCC4)c3c2C)c1 -2.26%
COC(=O)COc1ccc(Oc2nc(NC(C)(C)C)nc(N(C)C)n2)nn1 -0.97%
Cc1cc(F)ccc1NC(=O)CCSc1nc(-c2ccco2)cc(C(F)(F)F)n1 3.89%
COc1ccc(CNC(=O)c2cn(-c3cccc(OC)c3)c(=O)c3ccccc23)cc1 4.5%
Cc1ccc(C(=O)NC2(C(F)(F)F)N=C(c3ccccc3)N(C3CCCCC3)C2=O)cc1 (configuration not stated) -7.34%
CCOC(=O)c1c(C)c(-c2ccccc2)n(CC(=O)Nc2cccc(C)c2C)c1C 0.791%
CC(=O)Nc1ccc(Nc2ncnc3sc4c(c23)CCCC4)cc1 -3.52%
CCc1cc2c(cc3c(=O)n(CC(=O)NCCOC)nc(CC)n32)s1 -1.22%
Cc1ccc2nc(N(Cc3cccnc3)C(=O)CCOc3ccccc3)sc2c1 -2.67%
Cc1cccc(C(=O)N2CCc3cc(CNS(=O)(=O)c4cccs4)ccc32)c1 -8.31%
O=C(O)c1ccc(C2Nc3ccccc3-c3nnc(SCc4ccc(Cl)cc4)nc3O2)cc1 (configuration not stated) 1.32%
CCCN1C(=O)C2(c3ccccc31)c1c(oc3ccccc3c1=O)C(=O)N2CCCOC(C)C (configuration not stated) -5.82%
Cc1cccc(-c2nc(SCC(=O)N(C)c3ccccc3)c3c(=O)n(C)c(=O)n(C)c3n2)c1 2.88%
O=C(c1ccco1)N1CCN(C(=O)c2cnn(-c3cccc(F)c3)c2C2CCNCC2)CC1 7.95%
Cn1c(=O)cc(SCC(=O)N2CCN(c3ccccc3)CC2)c2ccccc21 -2.46%
COc1cccc(C(=O)Nc2ccc(C(=O)OCc3cc(=O)n4nc(C5CC5)sc4n3)cc2)c1 4.56%
COc1cc(OC)c(NC(=O)N2CC=C(c3c[nH]c4ccccc34)CC2)cc1Cl -14.7%
O=C(Cn1c(=O)n2nc(-c3cccc(F)c3)nc2c2ccccc21)N1CCN(c2ccccc2F)CC1 1.09%
O=C(c1cccc(Cl)c1)N1CCC(c2nc3ccccc3o2)CC1 0.124%
COc1ccc(OC)c(NC(=O)c2c(C)oc3ncnc(N4CCOCC4)c23)c1 -1.47%
CC1CCN(C(=O)C(C)Sc2nc(-c3ccccc3)cc(C(F)(F)F)n2)CC1 (configuration not stated) 3.35%
CCCCn1c(=O)nc2n(-c3ccc(F)cc3)c3ccccc3cc-2c1=O 5.81%
Cc1ccc(-c2cc(C(F)(F)F)n3ncc(-c4ccc(Cl)cc4)c3n2)cc1 -1.03%
O=C(CSc1nc2c(cnn2-c2ccc(F)cc2)c(=O)[nH]1)Nc1ccccc1C(F)(F)F -0.0492%
COc1cccc(CNC(=O)c2cc3ccc4cccnc4c3[nH]2)c1 -5.1%
COc1ccccc1N1CCN(C(=O)c2cc3c(=O)oc4ccccc4c3s2)CC1 -5.67%
CCOc1ccc(N2CC(c3nc4ccccc4n3CCOc3ccccc3)CC2=O)cc1 (configuration not stated) 6.82%
Cc1ccc(NC(=O)c2cc(S(=O)(=O)N3CCCCC3)c[nH]2)cc1F -7.07%
Cc1nn(-c2ccccc2)c2sc(C(=O)Nc3cccc(Br)c3)cc12 -17.6%
Cc1nc2ncnn2c(C)c1CCC(=O)NCc1cccc(Cl)c1 -8.35%
COc1ccc(C2C=C(c3ccccc3)Nc3nc(NC(=O)/C=C/c4ccc(Cl)cc4)nn32)cc1 (configuration not stated) 2.66%
CCOC(=O)c1c(NC(=O)COc2ccc(Br)cc2)sc(C(C)=O)c1C 3.29%
Cc1noc(C)c1S(=O)(=O)NCCc1csc2nc(-c3ccc(Cl)cc3)nn12 -1.15%
COc1ccccc1-c1nnc(C2CCN(S(=O)(=O)c3ccc(F)c(C)c3)CC2)o1 -11.6%
O=C(COc1ccc(F)cc1)Nc1ccc(Cl)c(-c2nc3ccccc3[nH]2)c1 -9.14%
CCOC(=O)N1CCN(C(=O)Cn2ncc3c4ccccc4n(Cc4ccc(F)cc4)c3c2=O)CC1 0.284%
Cc1cccc(NC(=O)c2c(C)oc3ncnc(N4CCCCC4)c23)c1C -6.31%
CCCCc1nn2c(=O)cc(COC(=O)c3ccccc3NC(=O)c3cccc(C)c3)nc2s1 7.74%
Cc1ccc(Cl)cc1NS(=O)(=O)c1ccc(N2CCCCS2(=O)=O)cc1 0%
Cc1nc(-c2ccc(F)cc2)sc1CCNC(=O)c1ccc(C(C)(C)C)cc1 0%
COc1ccc2nc(NC(=O)c3cc(=O)c4cc(C)c(C)cc4o3)sc2c1 -1.07%
CC(=O)Nc1cccc(-c2cn3cccnc3n2)c1 -0.377%
Cc1ccc(NC(=O)Cn2c(=O)n(Cc3ccccc3)c(=O)c3c2c2cc(C)ccc2n3C)cc1 0.966%
CCOc1ccc(C(=O)c2c(N)c(-c3nc(-c4ccc(OCC)cc4)cs3)c3ccccn23)cc1 -0.0438%
Cc1ccc(C(=O)NCC(c2cccnc2)N2CCc3ccccc3C2)cc1C (configuration not stated) 7.2%
CCOC(=O)CSc1nc2c(sc3ccccc32)c(=O)n1Cc1ccc(OC)cc1 0.475%
Cc1cccc(NC(=O)c2sc(-n3nc(C)c(CCC(C)C)c3C)nc2C)c1 -0.881%
Cc1ccc2c(c1)N(C(=O)N1CCC(C(=O)NCc3ccccc3F)CC1)CC(C)O2 (configuration not stated) 4.77%
Nc1c(C(=O)c2ccccc2)sc(Nc2ccc(Cl)c(Cl)c2)c1C(=O)Nc1ccccc1 -5.53%
N#Cc1ccccc1OCC(=O)N1CCN(c2ccccc2F)CC1 -4.35%
O=S(=O)(c1ccccc1)c1nc(-c2ccccc2F)oc1N1CCOCC1 -19.8%
COc1ccc(-c2cn3c(n2)sc2cc(C(=O)Nc4ccc(C)cc4C)ccc23)cc1 1.06%
COc1ccc(CCNc2nc3cc(OC)c(OC)cc3c3nc(-c4cccnc4)nn23)cc1OC -3.49%
COc1ccc(OC)c(NC(=O)N2CCN(Cc3nc4ccc(C)cc4o3)CC2)c1 0%
COc1cc2ccccc2cc1C(=O)Nc1ccc2oc(-c3cccc(C)c3)nc2c1 -4.14%
CCOc1ccc(NC(=O)CCSc2nc(-c3ccc4c(c3)OCO4)cc(C(F)(F)F)n2)cc1 -5.98%
COc1ccc(-n2c3c(cc(-c4nc(-c5ccc(Cl)cc5)cs4)c2=O)C(=O)CC(C)(C)C3)cc1Cl 0.04%
Cc1ccccc1NCc1nc2ccccc2n1CCOc1ccccc1 7.5%
CCN1C(=O)c2ccccc2Sc2ccc(NC(=O)c3ccc(C#N)cc3)cc21 -1.97%
CN(C(=O)Cn1nnc(-c2ccc(S(C)(=O)=O)cc2)n1)c1ccccc1 -0.0924%
Cc1c(C(=O)N(C)C)sc2c1c(=O)n(-c1ccccc1C(F)(F)F)c(=O)n2Cc1cccc(F)c1 -5.2%
COc1ccc(C(=O)Nc2nc3c(s2)Cc2cc(OC)ccc2-3)cc1 -10.8%
COc1ccc(NC(=O)CSc2oc(-c3ccco3)nc2S(=O)(=O)c2ccccc2)c(OC)c1 0%
CCc1ccc(S(=O)(=O)c2nnn3c2nc(NCc2ccccc2)c2cc(Cl)ccc23)cc1 1.67%
O=C(Nc1ccc(Cl)cc1)c1cc(S(=O)(=O)NC2CCCCCC2)ccc1F 0%
CCN1C(=O)C(Cc2nc3ccccc3c(=O)n2C)c2cc(C)ccc21 (configuration not stated) -0.431%
CCCNC(=O)C(Cc1ccccc1)NS(=O)(=O)c1ccc2c(c1)c(=O)n(C)c(=O)n2C (configuration not stated) -0.0264%
CCOc1ccc(C(=O)Nc2ccc3c(c2)OCCO3)cc1Br 1.02%
Cc1ccc(-c2csc3ncnc(Nc4ccc(C(=O)O)cc4)c23)cc1 6.72%
O=C(CN1CCN(Cc2ccccc2Cl)C1=O)NCCc1ccc(Cl)cc1 -20.7%
COc1ccccc1-c1nc2cc(NC(=O)c3ccccc3Cl)ccc2o1 14%
COc1ccc2c(c1)CCc1c(C(=O)Nc3ccc(OC)cc3OC)noc1-2 7.1%
COc1ccccc1NC(=O)c1sc2nc3n(c(=O)c2c1C)N=C(c1cccc(Br)c1)CS3 -0.0379%
COc1ccc(Cl)cc1NC(=O)CN1Cc2ccccc2C1=O 3.91%
COC(=O)c1ccc2c(c1)N(Cc1ccccc1)C(=O)c1ccccc1S2(=O)=O 0%
COc1ccc(Cn2c(C(=O)O)c(CNC3CCCCC3)c3ccc(C)cc32)cc1 -8.86%
